Values joined by “and” are separate entries in the source; they are usually repeats but may differ in a detail not shown here. Identical values can stand only once. In all, about 200,000 compounds went through this assay and about 4,500 (2.2%) were called active. This list was built around the results that the source calls inconclusive (neither active nor inactive); the mix of calls is not that of the screen. Calls follow the shape of the dose curve; as a rule, active = well fitted inhibition curve with a large enough effect; inconclusive = small, poorly fitted or top-dose-only effect, or effect the other way; inactive = flat fitted curve, though single readings scatter. A potency beside an inconclusive call is a rough fit, not a confirmed value.
Biological target: Cruzipain (Trypanosoma cruzi) (UniProt P25779)
Assay: qHTS Assay for Promiscuous and Specific Inhibitors of Cruzain (without detergent); also: nearly all actives have a fitted effect of over 40% in size;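 as to max response, negative = inhibition: plate controls were enzyme without inhibitor for no effect and buffer without enzyme for full effect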
Conditions: purified cruzain, Z-FR-AMC fluorescence, no detergent
Method in brief: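 Detergent-free condition (0.00005% Triton X-100) in acetate buffer pH 5.5 with DTT. 1.5 nM enzyme and compound were pre-mixed 15 min, then 2 uM Z-FR-AMC substrate added; reaction progress from fluorescence change between first and third reads (60 s).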
Potency is read from the fitted curve at half-maximal effect; tags tell the direction and shape of the fitted curve.

UniProt P25779, sequence (P25779 whole entry, looked up): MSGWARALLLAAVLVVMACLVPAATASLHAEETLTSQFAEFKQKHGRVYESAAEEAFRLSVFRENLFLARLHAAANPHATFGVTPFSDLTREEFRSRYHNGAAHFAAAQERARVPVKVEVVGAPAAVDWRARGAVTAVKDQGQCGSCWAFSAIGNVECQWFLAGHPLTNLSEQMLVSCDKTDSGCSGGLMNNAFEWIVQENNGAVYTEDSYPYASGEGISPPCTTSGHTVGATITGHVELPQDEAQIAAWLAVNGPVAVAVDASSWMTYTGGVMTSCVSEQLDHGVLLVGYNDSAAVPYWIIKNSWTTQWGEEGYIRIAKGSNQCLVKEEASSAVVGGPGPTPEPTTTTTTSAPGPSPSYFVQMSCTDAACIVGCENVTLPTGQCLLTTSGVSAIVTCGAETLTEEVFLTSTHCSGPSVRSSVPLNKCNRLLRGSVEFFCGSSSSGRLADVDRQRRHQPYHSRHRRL

SMILES	Potency	max response, negative = inhibition
O=C(C/C(=N\NC(=O)c1ccccc1Br)C(F)(F)F)c1cccs1	inconclusive: 31.6 µM [inhibitor, single point]	
Cc1ccccc1CN1CCC(CNC(=O)c2cc3ccc4cccnc4c3[nH]2)CC1		inactive: -9.74%
Cc1cccc(NC(=O)CSc2cn(CC(=O)N3CCC(C)CC3)c3ccccc23)c1C		inactive: -7.6%
CNC(=O)c1ccc(-c2nc(CN3CCc4ccccc43)c(C)o2)cc1	inconclusive: 31.6 µM [activator, single point]	
Cc1cccc(OCC(=O)Nc2ccc(OCc3cc(=O)n4cc(C)ccc4n3)cc2)c1		inactive: -2.66%
Cn1cnnc1SCC(=O)Nc1ccc2nc(SCc3cccc4ccccc34)sc2c1	inconclusive: 31.6 µM [activator, single point]	
COC(=O)c1ccccc1NC(=O)Cn1ccnc1	inconclusive: 1.26 µM [inhibitor, single point]	
c1ccc2c(c1)[nH]c1cnccc12		inactive: -10.8% and inactive: -14.9%
Cc1noc(C)c1-c1nccc(N(C)C)n1		inactive: -3.58%
CC(=O)c1c(C)[nH]c(C(=O)OCC(=O)Nc2cc(C(F)(F)F)ccc2N2CCOCC2)c1C	inconclusive: 31.6 µM [activator, single point]	
COc1ccc(OC)c(NS(=O)(=O)Cc2ccccc2)c1	active: 31.6 µM	
O=C1N=C(N2CCC(Cc3ccccc3)CC2)S/C1=C/c1cn[nH]c1-c1ccccc1	inconclusive: 39.8 µM [inhibitor, single point]	
COc1ccc(-c2coc3ccc(OC4OC(COC(C)=O)C(OC(C)=O)C(OC(C)=O)C4OC(C)=O)c(OC(C)=O)c3c2=O)cc1 (stereo not drawn)	inconclusive: 12.6 µM [activator, partial curve]	
O=C1CC(c2ccc(Br)cc2)c2c(c3ccccc3oc2=O)O1 (stereo not drawn)		inactive: -17.9%
CC(C)(C)OCC(NC(=O)C(CC(N)=O)NC(=O)OC(C)(C)C)C(=O)OC(C)(C)C (stereo not drawn)	inconclusive: 3.98 µM [activator, full curve, poor fit]	
Cc1cc(OCc2nc(-c3ccc(NC(=O)c4cccnc4)cc3)no2)ccc1Cl	inconclusive: 25.1 µM [inhibitor, single point]	
CCOC(=O)c1cccc(NC(=O)CC2C(=O)N(c3ccccc3)C(=O)N2Cc2ccco2)c1 (stereo not drawn)		inactive: 2.28%
Cc1cc(=O)n2c(ccc3ccccc32)c1C#N	inconclusive: 39.8 µM [inhibitor, single point]	
CSCCC(NC(=O)c1ccc(Cl)cc1)C(=O)OCC(=O)Nc1cc(Cl)ccc1C#N (stereo not drawn)		inactive: -28.7%
O=C(Nc1nccs1)c1cc(-c2ccccc2)nn1-c1ccccc1	inconclusive: 31.6 µM [inhibitor, single point]	
CCOC(=O)c1ccc(NC(=O)C2CCN(S(=O)(=O)c3ccc4c(c3)CCCC(=O)N4)CC2)cc1		inactive: 1.28%
COc1ccc(CCNC(=O)CSc2nnc(-c3ccc(F)cc3)c3ccccc23)cc1OC	inconclusive: 15.8 µM [inhibitor, partial curve]	
CCc1nn2c(=O)cc(COc3ccc(/C=C(\C#N)C(=O)Nc4ccc(F)cc4)cc3OC)nc2s1		inactive: 5.5%

SMILES	Potency	max response, negative = inhibition
O=C(COc1ccccc1)NCCc1csc(-c2ccc(Cl)cc2)n1	inconclusive: 31.6 µM [activator, single point]	
O=C(CSc1nc2scc(-c3ccco3)c2c(=O)n1-c1ccccc1)N1CCOCC1	inconclusive: 25.1 µM [activator, single point]	
CC(C)C(=O)N1CCN(c2nc(-c3ccccc3)c3c(c2C#N)CC(C)(C)OC3)CC1	inconclusive: 31.6 µM [activator, single point]	
COc1ccc(-c2nnc(SCC(=O)Nc3cccc(C(F)(F)F)c3)nc2-c2ccc(OC)cc2)cc1		inactive: -22.1%
O=C(Nc1ccc2c(c1)Cc1ccccc1-2)c1ccncc1	inconclusive: 39.8 µM [inhibitor, single point]	
O=C(O)c1c(Sc2ccccc2)c2cc(Cl)ccc2n1Cc1ccc(Cl)cc1	inconclusive: 39.8 µM [inhibitor, single point]	
O=S(=O)(Nc1ccc(Br)cc1F)c1ccc2nc(-c3ccccc3)[nH]c2c1	inconclusive: 31.6 µM [inhibitor, single point]	
CC1CCc2c(sc3nc(-c4cc5cc(Br)ccc5oc4=O)[nH]c(=O)c23)C1 (stereo not drawn)		inactive: 8.25%
Cc1cc(C)cc(NC(=O)N2CCC3(CC2)Oc2ccccc2C(=O)N3Cc2ccccc2F)c1		inactive: 2.34%
Cc1cccc(N(CC(O)Cn2c3ccccc3c3ccccc32)S(=O)(=O)c2ccc(F)cc2)c1 (stereo not drawn)		inactive: -15.3%
CN(CC(=O)Nc1sccc1C#N)C1CCCCC1		inactive: -21.1%
COc1ccc(OC)c(CNS(=O)(=O)c2ccc3c(c2)CCCN3C(C)=O)c1		inactive: -7.21%
Cc1ccc(C)n1CCN1CCN(C(=O)CSc2nc3ccccc3nc2N2CCOCC2)CC1	inconclusive: 39.8 µM [activator, single point]	
COc1ccc(CCNC(=O)c2ccc(Nc3nc4ccccc4n4nnnc34)cc2)cc1OC		inactive: -5.17%
COc1cccc(-c2nc(-c3ccc4c(c3)-c3ccccc3S4(=O)=O)c(-c3ccccc3)[nH]2)c1OC	active: 12.6 µM	
O=C(N/N=C/c1ccc(OCCCF)cc1)c1cc(OCC(F)(F)F)ccc1OCC(F)(F)F	active: 25.1 µM	
CCOC(=O)c1c(C)[nH]c(C)c1C(=O)COC(=O)[C@@H]1CCCN1S(=O)(=O)c1ccc(Cl)cc1	inconclusive: 31.6 µM [activator, single point]	
CC(=O)Nc1ccc(-c2csc(NC(=O)CCCc3cccs3)n2)cc1	active: 10 µM	
CCCCOC(C)=O		inactive: -0.456%
Cc1ccc(C(=O)Oc2coc(CSc3nnc(NC(=O)c4cccs4)s3)cc2=O)cc1	active: 25.1 µM	
Cc1ccc2onc(CC(=O)N3CCN(c4ccc(F)cc4)CC3)c2c1	active: 25.1 µM	
O=C(COC(=O)Cc1ccc(S(=O)(=O)N2CCCCC2)s1)Nc1ccc2c(c1)OCO2	active: 10 µM	
CCOc1ccc(S(=O)(=O)N(C)CCO)cc1-c1nc2c(C(C)(C)C)nn(C)c2c(=O)[nH]1	inconclusive: 31.6 µM [activator, single point]	

SMILES	Potency	max response, negative = inhibition
O=C(Cn1cc(C(F)(F)F)ccc1=O)N/N=C/c1cccc(Cl)c1Cl	inconclusive: 31.6 µM [inhibitor, single point]	
CCOC(=O)N1CCN(C(=O)CCCn2nc(C)c3sc4ccccc4c3c2=O)CC1	inconclusive: 31.6 µM [activator, single point]	
Cc1ccccc1S(=O)Cc1ccc(C(=O)N2CCN(c3cccc(C)c3C)CC2)o1 (stereo not drawn)	inconclusive: 39.8 µM [activator, single point]	
COc1ccc(/C=C2/SC(=S)N(CCC(=O)O)C2=O)cc1	inconclusive: 39.8 µM [activator, single point]	
O=C(CSc1nc2ccccc2o1)Nc1nc(-c2ccccc2)cs1	inconclusive: 31.6 µM [inhibitor, single point]	
Cc1cc(S(=O)(=O)C(CNC(=O)c2ccc(OC(C)C)cc2)c2cccs2)ccc1F (stereo not drawn)		inactive: -9.02%
CCOc1ccc2oc(C(=O)Nc3ccc(N4CCOCC4)cc3)c(C)c2c1	inconclusive: 39.8 µM [activator, single point]	
CCN(CC)S(=O)(=O)c1ccc(NC(=O)NCc2noc3ccc(C)cc23)cc1		inactive: -4.37%
Cc1sc2nc(SCc3nc(-c4cccs4)no3)n(-c3ccccc3)c(=O)c2c1C	inconclusive: 5.01 µM [inhibitor, full curve, poor fit]	
O=S1(=O)N(CCN2CC=C(c3c[nH]c4cc(F)ccc34)CC2)c2cccc3c2N1CCC3	inconclusive: 39.8 µM [inhibitor, single point]	
COc1ccc(/C=N/NC(=O)c2cc(Br)ccc2O)cc1Cn1cc(Cl)cn1	inconclusive: 31.6 µM [inhibitor, single point]	
COCCNc1ncnc2c1c(-c1ccccc1)cn2-c1ccc(C)c(Cl)c1		inactive: 6.98%
COc1cccc(-n2c(COc3ccc(C)cc3)nnc2SCC(=O)O)c1	inconclusive: 39.8 µM [activator, single point]	
CC(/C=C/c1ccc(O)cc1)=N/O	active: 7.94 µM	
CCN1/C(=C/C=C/C=C/c2sc3ccccc3[n+]2CC)Sc2ccccc21	inconclusive: 39.8 µM [inhibitor, single point]	
COc1ccc(C2=NOC3(CC(=O)N(c4ccc5ccccc5c4)C3=O)C2)c(OC)c1 (stereo not drawn)	inconclusive: 31.6 µM [inhibitor, single point]	
COc1ccc(OC)c(NC(=O)c2cc(-c3ccc(Cl)s3)nc3ccccc23)c1		inactive: 3.74%
CCCCOc1ccc(-c2nnn(CC(=O)c3c[nH]c4ccccc34)n2)cc1	active: 7.94 µM	
Cc1sc(NC(=O)C2CCCCC2C(=O)O)c(C(N)=O)c1-c1ccc(C(C)(C)C)cc1 (stereo not drawn)	inconclusive: 39.8 µM [activator, single point]	
O=C(COc1ccccc1)NCc1ccc2c(c1)CCN2C(=O)c1ccc(Cl)cc1		inactive: 0.769%
COc1ccc(NC(=O)N(CCC(C)C)C(C)c2cccs2)c(OC)c1 (stereo not drawn)		inactive: -4.3%
Cc1ccc(C2CCN(C(=O)c3cnn(-c4cccc(Cl)c4)c3C3CCN(C(=O)OC(C)(C)C)CC3)C2)cc1 (stereo not drawn)	inconclusive: 25.1 µM [activator, partial curve]	

From PubChem BioAssay AID1476 (National Center for Advancing Translational Sciences (NCATS), 2009)
